In PMC4336329 (PLoS ONE, 2015):
Screen size: about 310,000 compounds; about 14,000 (4.5%) showed an effect of 50% or more. The effect is printed as a negative number. This is one part of the list.

Biological target: human ether-à-go-go-related gene (hERG) potassium channel (human, UniProt Q12809)
Experiment: primary screen, population patch clamp on CHO cells stably expressing hERG
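Also: peak tail current of the secondary pulse compared with the same well before compound.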

human ether-à-go-go-related gene (hERG) potassium channel, sequence (Q12809 whole entry, looked up): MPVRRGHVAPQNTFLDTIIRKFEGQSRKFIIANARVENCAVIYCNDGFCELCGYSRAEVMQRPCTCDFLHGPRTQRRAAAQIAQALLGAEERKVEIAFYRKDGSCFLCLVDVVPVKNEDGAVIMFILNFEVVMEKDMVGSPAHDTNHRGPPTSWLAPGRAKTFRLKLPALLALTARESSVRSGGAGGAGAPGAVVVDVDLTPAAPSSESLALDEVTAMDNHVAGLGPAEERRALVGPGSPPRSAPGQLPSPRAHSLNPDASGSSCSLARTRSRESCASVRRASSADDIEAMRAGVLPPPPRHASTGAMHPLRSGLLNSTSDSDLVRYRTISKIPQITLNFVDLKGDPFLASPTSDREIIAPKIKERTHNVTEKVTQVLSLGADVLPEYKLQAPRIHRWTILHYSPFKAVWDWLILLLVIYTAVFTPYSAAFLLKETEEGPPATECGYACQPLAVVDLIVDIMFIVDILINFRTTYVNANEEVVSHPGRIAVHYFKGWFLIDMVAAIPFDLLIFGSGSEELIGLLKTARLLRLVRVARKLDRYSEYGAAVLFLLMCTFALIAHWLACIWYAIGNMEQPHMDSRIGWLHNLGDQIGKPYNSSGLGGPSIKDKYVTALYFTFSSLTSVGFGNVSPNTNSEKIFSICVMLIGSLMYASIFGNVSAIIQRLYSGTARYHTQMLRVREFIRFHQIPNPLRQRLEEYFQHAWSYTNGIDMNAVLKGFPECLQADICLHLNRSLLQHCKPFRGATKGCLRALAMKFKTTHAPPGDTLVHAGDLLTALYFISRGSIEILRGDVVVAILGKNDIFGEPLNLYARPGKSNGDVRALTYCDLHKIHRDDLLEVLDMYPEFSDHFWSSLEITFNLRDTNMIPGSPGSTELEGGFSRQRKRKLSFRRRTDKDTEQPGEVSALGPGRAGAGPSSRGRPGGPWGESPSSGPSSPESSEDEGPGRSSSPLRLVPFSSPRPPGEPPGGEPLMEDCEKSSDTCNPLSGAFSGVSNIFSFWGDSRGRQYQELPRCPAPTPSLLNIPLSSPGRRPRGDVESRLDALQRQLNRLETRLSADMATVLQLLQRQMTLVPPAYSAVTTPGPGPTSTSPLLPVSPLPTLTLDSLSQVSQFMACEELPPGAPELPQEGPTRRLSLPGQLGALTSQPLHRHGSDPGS

Q: For `COc1ccccc1NC(=O)CSc1nnnn1-c1ccc2c(c1)OCO2`, which “hERG current change (%, negative = inhibition) at 10uM” value is on record?
A: Its value is -16.2%.

Q: With `CCOc1cc(/C=N/NC(=O)C(=O)NCc2ccc3c(c2)OCO3)ccc1OCC(=O)N1CCOCC1` as the compound, how does the “hERG current change (%, negative = inhibition) at 10uM” value read?
A: The value was -1.21%.

Q: With `CSC1=NCCN1C(=O)c1ccc(S(=O)(=O)N2CCOCC2)cc1` as the compound, how does the “hERG current change (%, negative = inhibition) at 10uM” value read?
A: The value was 13.4%.

Q: How did the “hERG current change (%, negative = inhibition) at 10uM” value turn out when `Cc1cccc(OC(=O)C2C(c3ccccc3)C(C(=O)O)C2c2ccccc2)c1` (stereo not shown) was run?
A: Its value is -2.37%.

Q: With `COc1ccc(C(=O)O)cc1S(=O)(=O)NCCc1ccccn1` as the compound, how does the “hERG current change (%, negative = inhibition) at 10uM” value read?
A: Its value is 4.77%.

Q: For `Cc1sc2ncnc(NCCCO)c2c1C`, which “hERG current change (%, negative = inhibition) at 10uM” value is on record?
A: The value was 5.08%.

Q: How did the “hERG current change (%, negative = inhibition) at 10uM” value turn out when `COc1ccc2[nH]c(CN3CCN(C(C)C)C(CCO)C3)c(C)c2c1` (stereo not shown) was run?
A: The value was -10.6%.

Q: How did the “hERG current change (%, negative = inhibition) at 10uM” value turn out when `O=C(NC1CCCCC1)c1ccc2c(=O)n(CC3CCCO3)c(=O)[nH]c2c1` (stereo not shown) was run?
A: Its value is 5.86%.

Q: `COc1cc(OC)cc(C(=O)NCC(=O)OCC(=O)N2CC(C)CC(C)C2)c1` (stereo not shown) was tested. Which “hERG current change (%, negative = inhibition) at 10uM” value did it give?
A: The value was 3.72%.

Q: With `CCCc1nn2c(=O)cc(CSCC(=O)Nc3cccc(OC)c3)nc2s1` as the compound, how does the “hERG current change (%, negative = inhibition) at 10uM” value read?
A: The value was 12.8%.

Q: Which “hERG current change (%, negative = inhibition) at 10uM” value does the source give for `CN(C)CCNC(=O)C(=O)NCC1OCCN1S(=O)(=O)c1ccc([N+](=O)[O-])cc1` (stereo not shown) here?
A: Its value is -12.3%.

Q: How did the “hERG current change (%, negative = inhibition) at 10uM” value turn out when `CN(Cc1ccccc1)c1ccc([N+](=O)[O-])cc1C(=O)O` was run?
A: The value was 17.5%.

Q: Which “hERG current change (%, negative = inhibition) at 10uM” value does the source give for `COC(=O)Nc1ccc([N+](=O)[O-])cc1OC` here?
A: Its value is -1.3%.

Q: How did the “hERG current change (%, negative = inhibition) at 10uM” value turn out when `O=C(CSc1ccc2ccccc2c1Br)Nc1cccc(S(=O)(=O)NC2=NCCCCC2)c1` was run?
A: The value was 5.83%.

Q: With `CC(C)(C)C(O)C(Oc1ccc(Cl)cc1)n1cncn1` (stereo not shown) as the compound, how does the “hERG current change (%, negative = inhibition) at 10uM” value read?
A: The value was -0.787%.

Q: With `CCN(Cc1ccccc1)C1CCN(Cc2ccc(SC)cc2)CC1.O=C(O)C(=O)O` as the compound, how does the “hERG current change (%, negative = inhibition) at 10uM” value read?
A: Its value is -69.3%.

Q: `COc1ccc(-c2ncc(CN3CCC(CO)(Cc4cccc(OC)c4)CC3)cn2)cc1` was tested. Which “hERG current change (%, negative = inhibition) at 10uM” value did it give?
A: Its value is -4.79%.

Q: With `O=C(CNCc1ccccc1Cl)Nc1ccc(C(=O)N2CCCCC2)cc1.O=C(O)C(=O)O` as the compound, how does the “hERG current change (%, negative = inhibition) at 10uM” value read?
A: The value was 7.9%.

Q: How did the “hERG current change (%, negative = inhibition) at 10uM” value turn out when `CCCCN(CCCC)CCCN1CC(=O)N2[C@@H](Cc3c([nH]c4ccccc34)C2(C)C)C1=O` was run?
A: Its value is -73.2%.

Q: How did the “hERG current change (%, negative = inhibition) at 10uM” value turn out when `Cc1nc(Cl)c(C(=O)Nc2cccc(F)c2)c(C)c1Cl` was run?
A: The value was -5.95%.

Q: Which “hERG current change (%, negative = inhibition) at 10uM” value does the source give for `N#Cc1c(-c2ccc(F)cc2)c2c([nH]c1=O)-c1ccccc1OC2` here?
A: The value was 13.7%.

Q: Which “hERG current change (%, negative = inhibition) at 10uM” value does the source give for `CCCCC(C(=O)NC1CCCC1)N(C(=O)c1snc(C(N)=O)c1N)c1ccc(C)cc1` (stereo not shown) here?
A: The value was 24.1%.

Q: Which “hERG current change (%, negative = inhibition) at 10uM” value does the source give for `O=C(O)CCn1ccc2cc(S(=O)(=O)N3CCCCCC3)ccc21` here?
A: Its value is 12.5%.

Q: `Cc1noc(C(F)(F)F)c1C(=O)NNC(=O)c1ccccc1` was tested. Which “hERG current change (%, negative = inhibition) at 10uM” value did it give?
A: Its value is 9.91%.

Q: `CCc1cc2cc(C)ccc2nc1SCC(=O)NC1CCCC1` was tested. Which “hERG current change (%, negative = inhibition) at 10uM” value did it give?
A: Its value is -4.58%.

Q: Which “hERG current change (%, negative = inhibition) at 10uM” value does the source give for `CCOC(=O)c1c(C2CC2)csc1NC(=O)COC(=O)c1cc(OC)c(OC)cc1[N+](=O)[O-]` here?
A: Its value is 15.1%.

Q: For `Cc1cc(C)cc(C(=O)NC(=S)Nc2ccc(-c3cc4ccccc4oc3=O)cc2)c1`, which “hERG current change (%, negative = inhibition) at 10uM” value is on record?
A: Its value is 5.88%.

Q: With `O=C(NCCc1ccccc1)C(=O)NCC1OCCN1S(=O)(=O)c1cc(F)ccc1F` (stereo not shown) as the compound, how does the “hERG current change (%, negative = inhibition) at 10uM” value read?
A: The value was -36.7%.

Q: `Cc1cc(NNC(=O)Nc2cccc(Cl)c2)nc2c1c(C)nn2C` was tested. Which “hERG current change (%, negative = inhibition) at 10uM” value did it give?
A: The value was 3.56%.

Q: For `COc1ccc(-c2cc(C(=O)NCC(C)C)no2)cc1`, which “hERG current change (%, negative = inhibition) at 10uM” value is on record?
A: Its value is -2.68%.

Q: With `CCOC(=O)C1(Cc2cccc(OC)c2)CCN(Cc2cccc3c2OCO3)CC1` as the compound, how does the “hERG current change (%, negative = inhibition) at 10uM” value read?
A: The value was -39.4%.

Q: `O=C(NCC1CCCO1)c1ccc2c(c1)C(=O)N(c1cccc([N+](=O)[O-])c1)C2=O` (stereo not shown) was tested. Which “hERG current change (%, negative = inhibition) at 10uM” value did it give?
A: The value was 16.8%.

Q: With `COc1ccc(NC(=O)Nc2cccs2)cc1OC` as the compound, how does the “hERG current change (%, negative = inhibition) at 10uM” value read?
A: The value was 7.26%.

Q: Which “hERG current change (%, negative = inhibition) at 10uM” value does the source give for `COC(=O)CNC(=O)CN(c1ccc(OC)cc1OC)S(=O)(=O)c1ccccc1` here?
A: The value was 13.4%.

Q: `COC(=O)C(NC(=O)c1ccccc1)(Nc1nc(C)cs1)C(F)(F)F` (stereo not shown) was tested. Which “hERG current change (%, negative = inhibition) at 10uM” value did it give?
A: Its value is 17.9%.

Q: `O=C(/C(=C/c1cccc(Cl)c1)c1nc2ccccc2[nH]1)c1ccccc1` was tested. Which “hERG current change (%, negative = inhibition) at 10uM” value did it give?
A: Its value is 10.7%.

Q: With `COc1cc(C(=O)NC2CC3CCCC(C2)N3Cc2ccccc2)cc(OC)c1OC` (stereo not shown) as the compound, how does the “hERG current change (%, negative = inhibition) at 10uM” value read?
A: Its value is 8.89%.

Q: `Cc1ccc(C2CC(C(F)F)n3ncc(C(=O)Nc4c(C)nn(Cc5c(F)cccc5Cl)c4C)c3N2)cc1` (stereo not shown) was tested. Which “hERG current change (%, negative = inhibition) at 10uM” value did it give?
A: Its value is 8.9%.

Q: Which “hERG current change (%, negative = inhibition) at 10uM” value does the source give for `O=C(O)CCC(=O)NNC(=O)COc1cccc(Cl)c1` here?
A: Its value is 2.84%.

Q: For `O=C(Nc1ccccc1C1CC1)c1cccs1`, which “hERG current change (%, negative = inhibition) at 10uM” value is on record?
A: The value was -0.689%.

Q: `c1ccc(Cn2ncc3c(N4CCN(C(c5ccccc5)c5ccccc5)CC4)ncnc32)cc1` was tested. Which “hERG current change (%, negative = inhibition) at 10uM” value did it give?
A: The value was 31.1%.

Q: For `Cc1ccc(S(=O)(=O)N/N=C/c2ccc(C#N)cc2)cc1`, which “hERG current change (%, negative = inhibition) at 10uM” value is on record?
A: The value was 14.5%.

Q: Which “hERG current change (%, negative = inhibition) at 10uM” value does the source give for `CNC(=O)c1ccsc1NC(=O)c1sc2ccccc2c1Cl` here?
A: The value was 20.4%.

Q: For `COC(=O)C1=C(C)NC(=S)NC1/C=C/c1ccccc1` (stereo not shown), which “hERG current change (%, negative = inhibition) at 10uM” value is on record?
A: The value was 2.77%.

Q: Which “hERG current change (%, negative = inhibition) at 10uM” value does the source give for `COc1cc(CNc2ccc(CNc3ncn[nH]3)cc2)cc(Cl)c1OCc1ccccc1` here?
A: The value was 21.2%.

Q: With `Cc1c(/C=N/O)c2ccccn2c1C=O` as the compound, how does the “hERG current change (%, negative = inhibition) at 10uM” value read?
A: Its value is 24.4%.

Q: For `Cc1[nH]ccc(=O)c1Oc1ncc(C(F)(F)F)cc1Cl`, which “hERG current change (%, negative = inhibition) at 10uM” value is on record?
A: The value was 16.3%.

Q: For `NC(=O)Cn1cc(/C=N\NS(=O)(=O)c2ccc(F)cc2)c2ccccc21`, which “hERG current change (%, negative = inhibition) at 10uM” value is on record?
A: Its value is 11.5%.

Q: With `CC1CCCC(C)N1C(=O)CN1CCN(c2nc(-c3ccc(F)cc3)cs2)CC1` (stereo not shown) as the compound, how does the “hERG current change (%, negative = inhibition) at 10uM” value read?
A: The value was -38.5%.

Q: `COc1ccc(C(C)=O)cc1COc1ccccc1[N+](=O)[O-]` was tested. Which “hERG current change (%, negative = inhibition) at 10uM” value did it give?
A: Its value is 25%.

Q: With `Cc1ccc(-n2c(SCc3nc4ccccc4[nH]3)nnc2-c2ccncc2)cc1` as the compound, how does the “hERG current change (%, negative = inhibition) at 10uM” value read?
A: Its value is -39.5%.

Q: `O=C(Nc1cc2c(cc1C(=O)O)OCCCO2)c1ccc(C(F)(F)F)cc1` was tested. Which “hERG current change (%, negative = inhibition) at 10uM” value did it give?
A: Its value is 40.4%.

Q: For `Cl.OC1(c2cccnc2)CCN(Cc2nnnn2C2CCCCC2)CC1`, which “hERG current change (%, negative = inhibition) at 10uM” value is on record?
A: The value was 14.8%.

Q: `O=S(=O)(NCc1ccco1)c1ccccc1Br` was tested. Which “hERG current change (%, negative = inhibition) at 10uM” value did it give?
A: Its value is -0.486%.

Q: For `CC(=O)NS(=O)(=O)c1ccc2c(c1)Cc1cc(S(=O)(=O)NC(C)=O)ccc1-2`, which “hERG current change (%, negative = inhibition) at 10uM” value is on record?
A: Its value is 19.8%.
